According to PubChem BioAssay AID1347073 (National Center for Advancing Translational Sciences (NCATS), 2019):
Out of some 45,000 compounds screened, about 200 (0.44%) were called active. Inconclusive results (about 7%) are left out. Calls follow the shape of the dose curve; as a rule, active = well fitted activation curve with a large enough effect; inconclusive = small, poorly fitted or top-dose-only effect; inactive = no such curve, though single readings can be large or run the other way. The list shows a part of the results.

Assay: qHTS of TDP-43 Inhibitors: NCGC Sytravon Library Screen; also: 0% is about no effect; nearly all actives have a fitted effect of over 55% in size
Settings: yeast TDP-43 toxicity rescue, BacTiter-Glo growth, 24 h; series mostly up to 46.1 µM; growth rescue (activation): at the top concentration
How it was run: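 TDP-43-expressing yeast, pregrown in raffinose, seeded at OD600 0.02 in galactose medium with compound for 24 hr at 30 deg C. Growth read by BacTiter-Glo luminescence, so rescue of toxicity appears as activation.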

Compound	growth rescue (activation)
CCc1ccc(NC(=S)NC2CCN(Cc3ccccc3)CC2)cc1	inactive: 18.3%
CCn1c(O)c(N=NC(=O)Cn2ccc(C(F)(F)F)n2)c2ccccc21	inactive: 21.2%
COc1ccc(/C=C2/SC(=O)N(CCC(=O)Nc3ccc(S(=O)(=O)Nc4nccs4)cc3)C2=O)cc1	inactive: 5.01%
COC(=O)c1cc(NC(=S)N2CCN(C(=O)C3CCCO3)CC2)cc(C(=O)OC)c1 (stereo not given)	inactive: 17.3%
COc1cccc(CNc2nc3cc(-c4ccc(F)cc4)sc3c(=O)n2C)c1	inactive: 24%
CC1CC(C)CN(S(=O)(=O)c2ccc(NN)nc2)C1 (stereo not given)	inactive: 4.78%
Oc1ccccc1-c1cc(C(F)(F)F)nc(-c2ccccc2)n1	inactive: -2.89%
CCOC(=O)c1c(NC(=O)c2ccncc2)sc(C)c1C	inactive: -3.09%
Cc1cccc(NC(=O)CC2c3ccccc3Oc3ccccc32)c1	inactive: 3.4%
O=C(Nc1ccc(NC(=O)C2CC2)nc1)c1ccccc1F	inactive: -5.96%
N#Cc1ccccc1OCC(=O)NNC(=O)CNC(=O)c1ccc(Br)o1	inactive: 15.9%
COc1ccc(C2C(C(=O)c3ccc(C)o3)=C(O)C(=O)N2Cc2cccnc2)cc1OC (stereo not given)	inactive: 6.7%
CCn1nc(C(=O)Nc2nc3ccccc3[nH]2)c2ccccc2c1=O	inactive: -5.21%
C/C(=N\NC(=O)c1ccccc1O)c1ccc(Br)s1	inactive: -14.8%
COC(=O)CSc1nnc(-c2ccc(S(=O)(=O)N3CCCC3)cc2)o1	inactive: 16.9%
Cc1ccc(C)c(CN2C(=O)c3ccccc3S(=O)(=O)c3ccc(C(=O)N(C)C4CCCCC4)cc32)c1	inactive: 8.54%
CC(/C=N/NC(=O)c1ccco1)=C\c1ccccc1	inactive: 32.8%
COC(=O)CCC(=O)N(CCN(C(=O)CCC(=O)OC)c1ccccc1)c1ccccc1	inactive: -4.96%
COc1cc(/C=N/N=C/c2cc(OC)c(O)c(OC)c2)cc(OC)c1O	inactive: -28.4%
Cc1nn(-c2ccccc2)c(OC(=O)C(C)C)c1Sc1ccc(Cl)cc1	inactive: -91.9%
COc1ccc(CN(C(=O)c2ccco2)C2CCS(=O)(=O)C2)cc1 (stereo not given)	inactive: 12.9%
Cc1ccc(OCCC(=O)Nc2ccc(F)c(F)c2)cc1	inactive: 22.8%
Cc1ccc(COc2ccc(S(=O)(=O)N3CCCC3)cc2C(N)=O)cc1	inactive: 10.5%
CCOc1ccccc1NC(=O)Nc1ccccn1	inactive: 0.667%
COc1ccc(C(=O)OCCCN(C)C)cc1OC	inactive: -3.11%
C=CCOc1ccccc1CNc1ccccc1C	inactive: -0.265%
COCCCn1c(=O)c2ccccc2n(CC(=O)N2CCCc3ccccc32)c1=O	inactive: 1.15%
CC(=O)Nc1cccc2c1C(=O)N(c1ccccc1C)C2=O	inactive: 14.1%

Compound	growth rescue (activation)
Cn1nc(-c2ccc(NCCO)c([N+](=O)[O-])c2)c2ccccc2c1=O	inactive: -14.3%
COc1cc(NC(=O)COC(=O)CNC(=O)c2cc(C)cc(C)c2)c(C)cc1[N+](=O)[O-]	inactive: 2.43%
CCOC(=O)c1c(NC(=O)Cc2cccs2)sc2c1CCCC2	inactive: -12.4%
Cc1cc(C)nc(N/N=C/c2cc(C)n(CC(F)(F)F)c2C)n1	inactive: 10.7%
CCOC(=O)c1cc(-c2ccccc2)sc1NC(=O)C(C)C	inactive: 10.1%
CCOC(=O)Cc1[nH]nc2c1C(Cc1ccccc1)C(C#N)=C(N)O2 (stereo not given)	inactive: -6.82%
CCOc1ccccc1NC(=O)COC(=O)c1nc2nccc(C)n2n1	inactive: 14.4%
O=C(COC(=O)c1cnccn1)Nc1ncc(C(F)(F)F)cc1Cl	inactive: 14.9%
Cc1cc(C)c(C)c(S(=O)(=O)Nc2cccc(S(=O)(=O)Nc3ccccc3C(=O)O)c2)c1C	inactive: -35.9%
COCC(=O)Nc1cc(C)cn(Cc2c(F)cccc2Cl)c1=O	inactive: 20%
O=C(Nc1cccc(Cl)c1)c1cnc2sc(N3CCCC3)nn2c1=O	inactive: 3.8%
Nc1c(C(=O)NCc2ccc3c(c2)OCO3)nnn1Cc1cccc(F)c1	inactive: 8.57%
O=Cc1ccc(-c2ccc(Cl)cc2Cl)[nH]1	inactive: 35.2%
OC[C@@H]1CN(Cc2ccc3c(c2)OCO3)C[C@H](n2cnc3c(NCc4ccco4)ncnc32)O1	inactive: 8.28%
CCn1c(N2CCN(C(=O)/C=C/c3ccccc3)CC2)nc2ccccc21	inactive: -1.81%
CCc1ccc(N=C2NC(=O)/C(=C/c3cc(Br)c(OCC(=O)O)c(OC)c3)S2)cc1	inactive: 13.8%
CCN(CC)S(=O)(=O)c1ccc(Oc2ccccc2)c(N)c1	inactive: 12.1%
CC1(C)CC(NC(=O)Cc2ccccc2[N+](=O)[O-])CC(C)(C)N1	inactive: -5.96%
Cn1c(=O)n(C)c2cc(NS(=O)(=O)c3cccs3)ccc21	inactive: 11.5%
CC(C)CNC(=O)CN1c2cccc3cccc(c23)S1(=O)=O	inactive: 13.1%
CN(c1cccc(NC(=O)c2ccc(N(C)S(=O)(=O)c3ccccc3)cc2)c1)S(C)(=O)=O	inactive: -1.65%
C=CCNC(=O)c1c(Br)cnn1-c1ccc(C)cc1	inactive: 8.69%
CCNc1nc(NC#N)nc(SCC(=O)OCC)n1	inactive: -3.95%
CN1CCC(N(C)C(=O)c2cc(-c3ccc(F)cc3)nc3ccccc23)CC1	inactive: 8.36%
CC(=O)c1c(CSc2ccccc2)oc2ccc(O)c(CN(C)C)c12	inactive: 2.72%
CSc1ccc(C(=O)/C=C/c2ccc(N)cc2)cc1	inactive: 27.4%
CC(NC(=O)Cc1ccsc1)c1ccc(Cl)cc1Cl (stereo not given)	inactive: 3.98%
